Test results published in paper PMC4336329 (PLoS ONE, 2015).
Hit rate of the full screen: of about 310,000 compounds, about 2,200 (0.71%) showed an effect of 50% or more. Effects have a minus sign here. Some of the results follow.

Each compound was assayed against human ether-à-go-go-related gene (hERG) potassium channel (human, UniProt Q12809) (assay: primary screen, population patch clamp on CHO cells stably expressing hERG).
Chain of human ether-à-go-go-related gene (hERG) potassium channel (Q12809 whole entry, looked up): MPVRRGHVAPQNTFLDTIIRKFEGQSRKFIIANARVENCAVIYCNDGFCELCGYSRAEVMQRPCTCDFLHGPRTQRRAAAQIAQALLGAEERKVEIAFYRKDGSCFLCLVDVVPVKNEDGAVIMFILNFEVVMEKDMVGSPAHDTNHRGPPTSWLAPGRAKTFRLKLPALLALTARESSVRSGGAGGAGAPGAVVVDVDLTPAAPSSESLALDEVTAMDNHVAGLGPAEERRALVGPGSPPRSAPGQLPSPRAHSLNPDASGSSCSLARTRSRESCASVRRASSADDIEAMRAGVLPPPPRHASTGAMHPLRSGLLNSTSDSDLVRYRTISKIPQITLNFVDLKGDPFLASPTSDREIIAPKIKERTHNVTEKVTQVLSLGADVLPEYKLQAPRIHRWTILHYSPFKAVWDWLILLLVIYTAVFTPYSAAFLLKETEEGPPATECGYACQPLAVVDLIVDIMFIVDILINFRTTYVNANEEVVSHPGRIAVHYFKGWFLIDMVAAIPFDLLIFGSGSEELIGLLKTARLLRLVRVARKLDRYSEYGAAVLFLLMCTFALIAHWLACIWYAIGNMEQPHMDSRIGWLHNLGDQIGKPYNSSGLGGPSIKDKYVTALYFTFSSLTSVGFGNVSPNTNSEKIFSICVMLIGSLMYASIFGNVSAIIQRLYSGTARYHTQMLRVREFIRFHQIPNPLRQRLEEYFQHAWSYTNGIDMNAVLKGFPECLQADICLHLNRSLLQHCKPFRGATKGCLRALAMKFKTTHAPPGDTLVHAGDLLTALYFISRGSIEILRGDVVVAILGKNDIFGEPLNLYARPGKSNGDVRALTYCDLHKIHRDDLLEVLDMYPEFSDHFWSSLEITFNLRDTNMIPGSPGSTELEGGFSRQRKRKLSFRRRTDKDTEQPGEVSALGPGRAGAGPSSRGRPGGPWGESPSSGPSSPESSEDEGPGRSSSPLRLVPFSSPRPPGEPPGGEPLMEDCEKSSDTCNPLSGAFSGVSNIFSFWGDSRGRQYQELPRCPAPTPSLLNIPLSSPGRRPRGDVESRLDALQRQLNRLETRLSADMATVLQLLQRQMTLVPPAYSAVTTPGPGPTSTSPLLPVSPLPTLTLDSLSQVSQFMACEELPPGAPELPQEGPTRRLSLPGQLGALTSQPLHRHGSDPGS

First: CCCc1nnc(SCC(=O)Nc2cccc(C(F)(F)F)c2)o1
Second: O=C(CSc1nc2ccccc2s1)Nc1ccc2c(c1)OCO2
The “hERG current change (%, negative = inhibition) at 1uM” value of the first is higher: 8.53% for the first, 3.45% for the second.

Compared with `CCC(=O)NC(=S)Nc1ccc(NC(=O)COc2ccc(Cl)cc2Cl)cc1`, `CCOc1ccc(NC(=S)Nc2ccc(C)c([N+](=O)[O-])c2)cc1.Cl` is higher in “hERG current change (%, negative = inhibition) at 1uM” value: 10.6% for the first, 15.8% for the second.

Compared with `CCCC(CCC)C(=O)Oc1cc(C)[nH]c(=O)c1[N+](=O)[O-]`, `CC(=O)c1c(C)[nH]c(C(=O)OCC(=O)Nc2cc(Cl)ccc2[N+](=O)[O-])c1C` is higher in “hERG current change (%, negative = inhibition) at 1uM” value: 5.72% for the first, 10.5% for the second.

Going from `Cc1ccccc1NC(=O)c1ccno1` to `Cc1cc(NC(=O)COc2ccccc2C)no1`, the “hERG current change (%, negative = inhibition) at 1uM” value falls from 12.9% to 10.4%.

First: COc1ccc(C(C(=O)NC2CCCCC2)N(C(=O)c2snc(C(N)=O)c2N)c2ccccc2OC)cc1 (centres unmarked)
Second: COc1ccc(CNC(=O)c2ccccc2NC(=O)C2=CSCCO2)c(OC)c1
The “hERG current change (%, negative = inhibition) at 1uM” value of the first is higher: 17.4% for the first, 4.38% for the second.

Compared with `COc1ccc(/C=C/C(=O)Oc2ccc(C)cc2)cc1`, `COc1ccc(CCCC(=O)Nc2ccc(F)cc2)cc1` is higher in “hERG current change (%, negative = inhibition) at 1uM” value: 1.29% for the first, 8.9% for the second.

Going from `CN(C)S(=O)(=O)c1ccc(N2CCCC2)c(C(=O)Nc2nc3c(ccc4ccccc43)s2)c1` to `O=C(c1ccccc1NS(=O)(=O)c1ccc(F)cc1)N1CCCCC1`, the “hERG current change (%, negative = inhibition) at 1uM” value falls from 16.5% to -4.95%.

First: Cn1c(=O)c2[nH]c(-c3ccccc3O)nc2n(C)c1=O
Second: COc1ccc(C)cc1NS(=O)(=O)c1cn(C)c(=O)n(C)c1=O
The “hERG current change (%, negative = inhibition) at 1uM” value of the first is higher: 17.2% for the first, 6.01% for the second.

Compared with `COc1ccc(-n2cc(-c3ccccc3)c3c(NN4CCOCC4)ncnc32)cc1`, `COc1ccc(Cc2nc3ccc(C(=O)NCC4COCCO4)cc3o2)cc1` (centres unmarked) is higher in “hERG current change (%, negative = inhibition) at 1uM” value: -7.34% for the first, 10.4% for the second.

Going from `O=C(CSc1nccc2ccccc12)N1CCN(Cc2ccc3c(c2)OCO3)CC1` to `CC(=O)N1CCN(C(=O)c2cc3ccccc3o2)CC1`, the “hERG current change (%, negative = inhibition) at 1uM” value rises from -14.4% to 19.1%.

First: CC(NC(=O)Cn1cnc([N+](=O)[O-])n1)c1ccccc1 (centres unmarked)
Second: OC(c1ccccc1)c1ccncc1 (centres unmarked)
The “hERG current change (%, negative = inhibition) at 1uM” value of the first is higher: 15.4% for the first, -1.29% for the second.

Compared with `O=C(CSc1nnc(NC(=O)C2CC2)s1)NCc1cccs1`, `CCCC(=O)Nc1ccc(C(=O)NN=C(C2CC2)C2CC2)cc1` is lower in “hERG current change (%, negative = inhibition) at 1uM” value: 7.31% for the first, -0.687% for the second.

Going from `NNC(=O)c1nc[nH]c1C(=O)Nc1ccccc1[N+](=O)[O-]` to `O=c1[nH]cnc2c1oc1ccccc12`, the “hERG current change (%, negative = inhibition) at 1uM” value falls from 16.6% to 12.7%.

Compared with `C#CCOCCOCCOCCNc1nc(N2CCN(C(=O)CCCCCCCCCCNC(=O)[C@H](CCCCN)n3cc(C)nn3)CC2)nc(N2CCN(C(=O)CCCCCCCCCCNC(=O)[C@H](CCCCN)n3cc(CCCC(=O)O)nn3)CC2)n1`, `NCCCCCc1cn(CC(=O)NCCCCCCCCCCC(=O)N2CCNCC2)nn1` is lower in “hERG current change (%, negative = inhibition) at 1uM” value: 17.3% for the first, -9.21% for the second.

Going from `Cc1ccc(S(=O)(=O)NCc2ccco2)cc1C` to `Cc1ccc(S(=O)(=O)CCC(=O)NCc2ccco2)cc1`, the “hERG current change (%, negative = inhibition) at 1uM” value rises from 1.95% to 1.96%.

Compared with `Cc1ccc2oc(C(=O)N(CCO)Cc3ccccc3)c(C)c2c1`, `Cc1ccc(-c2cc(C(=O)OC3CCOC3=O)c3ccccc3n2)c(C)c1` (centres unmarked) is lower in “hERG current change (%, negative = inhibition) at 1uM” value: 11.9% for the first, 6.74% for the second.

First: COC(=O)c1cccc(NC(=S)NC(C)C)c1
Second: Cc1ccc(NC(=S)NNC(=O)c2cn(C)nc2C)cc1
The “hERG current change (%, negative = inhibition) at 1uM” value of the first is higher: 7.06% for the first, 3.7% for the second.

Going from `Cc1ccccc1-c1nc(CN2CCC(C(=O)NCCCN3CCCC3)CC2)c(C)o1` to `Cc1ccc(C)c(NC(=O)CCc2nnc3ccc(N4CCCC4)nn23)c1`, the “hERG current change (%, negative = inhibition) at 1uM” value falls from 17.2% to 3.57%.

First: C=CCN1C(=O)C(=O)N(CC(=O)c2ccc3c(c2)CCCC3)C1=O
Second: C=CCn1c(N)cc(=O)nc1SCC(=O)N(c1ccccc1)c1ccccc1
The “hERG current change (%, negative = inhibition) at 1uM” value of the first is lower: 3.04% for the first, 13.8% for the second.

Compared with `Nc1nc(-c2ccccn2)nc(N)c1Cc1ccccc1F`, `C=CCn1c(CCNC(=O)c2ccccc2F)nnc1SCC(=O)Nc1nc2ccccc2s1` is lower in “hERG current change (%, negative = inhibition) at 1uM” value: 9.09% for the first, -14.2% for the second.

First: N[C@@]12CCc3nonc3[C@]1(O)CC(c1ccccc1)=[N+]2[O-]
Second: O=C(CC(c1ccccc1)C1CCCCC1=O)c1ccco1 (centres unmarked)
The “hERG current change (%, negative = inhibition) at 1uM” value of the first is lower: 2.68% for the first, 7.14% for the second.

Going from `O=C(N1CCOCC1)C12CCC3CC(CC(C3)C1)C2` to `CC1CCCC(NC(=O)C2CCN(S(=O)(=O)N3CCCCC3)CC2)C1C` (centres unmarked), the “hERG current change (%, negative = inhibition) at 1uM” value rises from 0.677% to 6.1%.

Going from `COc1cc(C2NC(=S)NC(c3ccccc3)=C2C(C)=O)cc(Br)c1OCC(N)=O` (centres unmarked) to `COc1cc(C=O)c(Br)cc1OCC(=O)NCc1ccccc1`, the “hERG current change (%, negative = inhibition) at 1uM” value rises from 6.27% to 12.6%.

Going from `O=S(=O)(NC1CCCCC1Oc1ccccc1)c1ccccc1` (centres unmarked) to `O=C1CC(c2ccccc2)CC(O)=C1C=Nc1ccccc1` (centres unmarked), the “hERG current change (%, negative = inhibition) at 1uM” value falls from 10.6% to 10.2%.

First: O=C(c1ccc(-c2ccccc2)c(F)c1)C1CCCN(CCO)C1 (centres unmarked)
Second: O=C(NCc1cnn(-c2ccccc2)c1)C1CCC(=O)N(C2CC2)C1 (centres unmarked)
The “hERG current change (%, negative = inhibition) at 1uM” value of the first is lower: 7.65% for the first, 13.4% for the second.

Going from `C[C@H](NC(=O)c1ccccc1Cl)C(=O)OCc1cn2cc(Cl)ccc2n1` to `O=C(Cc1ccc(Cl)cc1)Nc1ccccc1C(=O)Nc1ccc(C(=O)O)cc1`, the “hERG current change (%, negative = inhibition) at 1uM” value rises from 13.3% to 18.9%.

First: COc1ccc(CC(NC(=O)c2ccccc2)C(=O)NCC(=O)O)cc1 (centres unmarked)
Second: Cc1cnc(C(=O)OCC(=O)NCc2ccccc2)cn1
The “hERG current change (%, negative = inhibition) at 1uM” value of the first is lower: 10.6% for the first, 15% for the second.

Going from `COC(=O)c1sc(-c2ccc(Cl)cc2)cc1N` to `O=C(c1ccc(Cl)cc1)c1nnc(-c2ccncc2)o1`, the “hERG current change (%, negative = inhibition) at 1uM” value rises from 3.07% to 11.2%.

Compared with `CC(C)CCN(N=O)[C@@H](Cc1ccccc1)CN(N=O)[C@@H](Cc1ccccc1)CN(C)N=O.[Na+]`, `COCCN(C(=O)COC(=O)CCc1c[nH]c2ccccc12)c1c(N)n(Cc2ccccc2)c(=O)[nH]c1=O` is lower in “hERG current change (%, negative = inhibition) at 1uM” value: 18.1% for the first, 2.23% for the second.

First: O=C(c1cc2c(cc1Br)OCCCO2)N1CCCCC1
Second: CC1CCCCN1C(=O)C1CCCCN1S(=O)(=O)c1cccc([N+](=O)[O-])c1 (centres unmarked)
The “hERG current change (%, negative = inhibition) at 1uM” value of the first is higher: 10.5% for the first, 5.88% for the second.

Going from `COc1ccc(C(=O)n2nc(C)cc2C)cc1Br` to `Cc1ccc(N=Cc2c(O)cc(C)oc2=O)c(C)c1`, the “hERG current change (%, negative = inhibition) at 1uM” value rises from 5% to 18%.

First: CC(NS(=O)(=O)c1ccccc1Cl)C1CC2CCC1C2 (centres unmarked)
Second: Cl.Fc1ccccc1CNC1CN2CCC1CC2 (centres unmarked)
The “hERG current change (%, negative = inhibition) at 1uM” value of the first is lower: 9.87% for the first, 22% for the second.

Compared with `Cc1ccc(S(C)(=O)=O)cc1C(=O)Nc1ccc(S(=O)(=O)Nc2nccs2)cc1`, `Cc1ccc(NC(=O)CCS(=O)(=O)c2ccc(Br)s2)cc1` is lower in “hERG current change (%, negative = inhibition) at 1uM” value: 6.65% for the first, -15.4% for the second.

First: CCOc1ccc(N2C(=O)CC(Sc3ncccn3)C2=O)cc1 (centres unmarked)
Second: CCOC(=O)C1=C(Cn2cnc3ccccc32)NC(=O)NC1c1ccc(Cl)cc1 (centres unmarked)
The “hERG current change (%, negative = inhibition) at 1uM” value of the first is higher: 13.4% for the first, -2.53% for the second.

First: Cc1ccc(S(=O)(=O)NC(CC(C)C)C(=O)N2CC(C)OC(C)C2)cc1 (centres unmarked)
Second: Cc1ccc(S(=O)(=O)Cn2nnnc2C(c2ccccn2)N2CCN(c3ccccc3)CC2)cc1 (centres unmarked)
The “hERG current change (%, negative = inhibition) at 1uM” value of the first is lower: -7% for the first, 8.08% for the second.

First: O=C(O)CCCCCn1c(SCc2cc(=O)n3cc(Cl)ccc3n2)nc2ccsc2c1=O
Second: CCn1cc(C(=O)N[C@@H](C)C(=O)NCCCO)c(=O)c2cc3c(cc21)OCO3
The “hERG current change (%, negative = inhibition) at 1uM” value of the first is lower: 4.33% for the first, 15.9% for the second.

Going from `C=CCOc1ccc2ccccc2c1CNn1c(C)n[nH]c1=S` to `COc1ccc(Cl)cc1S(=O)(=O)Nc1noc2ccccc12`, the “hERG current change (%, negative = inhibition) at 1uM” value falls from 22.6% to 12.1%.

First: CC1CCC(NC(=O)CCS(=O)(=O)c2ccc3c(c2)CCN3C(=O)C2CC2)CC1 (centres unmarked)
Second: COc1ccc2c3c([nH]c2c1)C1CC2C(CC(O)C(OC)C2CO)CN1CC3 (centres unmarked)
The “hERG current change (%, negative = inhibition) at 1uM” value of the first is higher: -3.66% for the first, -7.71% for the second.

Going from `Cc1ccc(/C=N/NC(=O)c2ccc(-n3cccc3)cc2)o1` to `O=C(Nc1ccc(Cl)cc1)N1N=CCC1c1ccccc1` (centres unmarked), the “hERG current change (%, negative = inhibition) at 1uM” value falls from 10.4% to 5.62%.

Going from `CCC1CC(C(=O)Nc2ccccc2)C(=O)O1` (centres unmarked) to `CC(C)C(OC(=O)c1nsc(Cl)c1Cl)C(=O)NCc1ccccc1` (centres unmarked), the “hERG current change (%, negative = inhibition) at 1uM” value rises from 10.4% to 14.3%.

First: COc1ccccc1C1C2=C(COC2=O)Nc2cc3c(cc21)OCO3 (centres unmarked)
Second: COc1cc(Oc2ccccc2)nc(N)n1
The “hERG current change (%, negative = inhibition) at 1uM” value of the first is higher: 10.3% for the first, 8.73% for the second.

First: S=c1[nH]nc(COc2ccccc2)n1/N=C/C=C/c1ccco1
Second: Cc1ccccc1C1c2[nH]c3ccccc3c2C[C@H]2C(=O)N(C3CCN(Cc4ccccc4)CC3)CC(=O)N12 (some centres unmarked)
The “hERG current change (%, negative = inhibition) at 1uM” value of the first is higher: 17.6% for the first, 9.64% for the second.

Compared with `CCOC(=O)c1cc(C#N)c(C)nc1N(CC)CC`, `CN(C)CCNC(=O)c1ccc(Sc2ccc(Br)cc2)c([N+](=O)[O-])c1` is lower in “hERG current change (%, negative = inhibition) at 1uM” value: 3.29% for the first, -3.92% for the second.

Compared with `O=C(c1cccc(C(F)(F)F)c1)N1CCN(S(=O)(=O)c2ccc(Cl)s2)CC1`, `FC(F)(F)c1cccc(NC(=S)Nc2cccc(NC(=S)Nc3cccc(C(F)(F)F)c3)n2)c1` is higher in “hERG current change (%, negative = inhibition) at 1uM” value: 3.68% for the first, 6.75% for the second.

`C=CCc1c(C)c(C#N)c2nc3ccccc3n2c1N1CCCCC1` was tested, and the “hERG current change (%, negative = inhibition) at 1uM” value was 12.6%.
